# Data published in PMC7819943, “Rice protein-binding microarrays: a tool to detect cis-acting elements near promoter regions in rice”.
# The list shows a part of the results.
# Molecular target: T1, OsWOX13 (Oryza sativa, UniProt Q5QMM3 1-267)
# T1 sequence: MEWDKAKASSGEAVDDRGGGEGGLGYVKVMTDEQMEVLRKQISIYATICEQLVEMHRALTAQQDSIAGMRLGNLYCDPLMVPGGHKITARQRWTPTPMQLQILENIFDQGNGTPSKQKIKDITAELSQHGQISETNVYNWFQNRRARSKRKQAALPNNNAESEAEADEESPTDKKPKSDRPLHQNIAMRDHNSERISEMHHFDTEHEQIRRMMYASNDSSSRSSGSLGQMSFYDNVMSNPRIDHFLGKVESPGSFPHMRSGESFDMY
# Assay: protein-binding microarray (RPBM); PBS, 2% BSA, 51.3 ng/ul salmon testes DNA, 50 uM zinc acetate, 200 nM TF, 25 C, 1 h; high values mean tight binding
# Conditions: protein: recombinant; tags: N-terminal polyhistidine and DsRed monomer fusion (pET32a); label: CyDye5-dUTP incorporated in the synthesized complementary strand; 3' TTTTT single-stranded linker to array surface; dsDNA, one strand shown
# Outline: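 The binding signal for each feature is its fluorescence intensity in arbitrary units. An Axon 4000B scanner was used to read a custom Agilent array that had been made double-stranded with Cy5-dUTP primer extension, blocked with 2% BSA, incubated at 25 °C for 1 h with 200 nM protein in PBS, 2% BSA, salmon testes DNA and 50 µM zinc acetate, and washed. The protein was an N-terminal polyhistidine–DsRed transcription factor fusion from E. coli BL21-CodonPlus, purified on Ni–NTA.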
row,Sequence,binding signal
1,ATTTAAATTAAATCTTAGGAATATAAATTATGAATAACTCCGGAGTCACCTAGTGCAG,14900 fluorescence intensity (a.u.)
2,CCACGTGTAATTACCGATCTGCCCCTCCCAGCCCACGTCACGGAGTCACCTAGTGCAG,11000 fluorescence intensity (a.u.)
3,ATAAACAAATCTGAAGGAATAATTGCATACAATGTCTAGTCGGAGTCACCTAGTGCAG,4370 fluorescence intensity (a.u.)
4,TCAAAATTGGAAGTTTGATTGAAATTGGAACGATGTGACGCGGAGTCACCTAGTGCAG,61400 fluorescence intensity (a.u.)
5,AGTTTTAATTACATTTAGAAGTTAGTGAAACTCTTACTAGCGGAGTCACCTAGTGCAG,14000 fluorescence intensity (a.u.)
6,AGTATGTACCTGATTAACAGAAGAACTAACATATTCACTTCGGAGTCACCTAGTGCAG,3850 fluorescence intensity (a.u.)
7,ATCATCATATAATGGGTAATTGACACACTGAGAGGAAACGCGGAGTCACCTAGTGCAG,28500 fluorescence intensity (a.u.)
8,TACTTACCATTGATTTGCAACAAAACGTGTTAGAGCTGGACGGAGTCACCTAGTGCAG,8040 fluorescence intensity (a.u.)
9,TATGAATGAGCTATTAGATTAGCTATAAATGTTTTGGAGCCGGAGTCACCTAGTGCAG,7890 fluorescence intensity (a.u.)
10,ACTGATTGCCGATCAGCCAGGCCCGGTGTTTACATCCAGGCGGAGTCACCTAGTGCAG,11300 fluorescence intensity (a.u.)
11,ACACTAATTAGGGAGATAATCTCTCTTGTGGTGTTTGTGTCGGAGTCACCTAGTGCAG,52300 fluorescence intensity (a.u.)
12,TCAATCCAGCACAGTAATTACCAAATCACTCTAGTTAGAACGGAGTCACCTAGTGCAG,4610 fluorescence intensity (a.u.)
13,TTAAATTTAATCTTTAAGAATTATATTGCACATACAATTTCGGAGTCACCTAGTGCAG,14600 fluorescence intensity (a.u.)
14,GAGTTTAAATAGATTTTGATATGATCATGAGACTTGACAACGGAGTCACCTAGTGCAG,12900 fluorescence intensity (a.u.)
15,GTTGCAATTAGTTACTATTAGCACATGGAGTCTGTACTATCGGAGTCACCTAGTGCAG,6000 fluorescence intensity (a.u.)
16,ATTTCTAATTGGTGTTTTGAATATTTGCTCTAGACTTTTGCGGAGTCACCTAGTGCAG,33100 fluorescence intensity (a.u.)
17,GGATTGACAGACACCAAGGAACACATGTAGTAGTAAATGACGGAGTCACCTAGTGCAG,18300 fluorescence intensity (a.u.)
18,CAAAATTTGATAAATTTTGATTAATTTCGGTTGAATTTTACGGAGTCACCTAGTGCAG,12900 fluorescence intensity (a.u.)
19,AAGTAATTATTAATTCTTTTCCTATCATTTGTTTCATTATCGGAGTCACCTAGTGCAG,16700 fluorescence intensity (a.u.)
20,CGAAATTAAGTTTGGAGATTTTCAGGCACCTTCTTTTCACCGGAGTCACCTAGTGCAG,7840 fluorescence intensity (a.u.)
21,CACTTTAATTCAAAATTTAATCCACTCTTTTAAGTGGATTCGGAGTCACCTAGTGCAG,3360 fluorescence intensity (a.u.)

row,Sequence,binding signal
1,AGATGTTTGAATAATTGATACAATATCAGGAGCGAATATGCGGAGTCACCTAGTGCAG,4430 fluorescence intensity (a.u.)
2,TATAACTATTTAAATGACATGTAGTAAACGATAAGGCTTACGGAGTCACCTAGTGCAG,6800 fluorescence intensity (a.u.)
3,CATCTATTTTGGAATTGATGGAGTAAGGCCGTGTTTAGATCGGAGTCACCTAGTGCAG,3700 fluorescence intensity (a.u.)
4,CCTTTCTCCTTCAATCATCATCACACACCCCATCCTCTAACGGAGTCACCTAGTGCAG,12600 fluorescence intensity (a.u.)
5,GCGCTTAATCTGTTAGTTACATTATAACTATTCGTATTCGCGGAGTCACCTAGTGCAG,3650 fluorescence intensity (a.u.)
6,TTAAAATTATGTTTGAAAATTTAAATTTTAGACGCGGCTTCGGAGTCACCTAGTGCAG,14900 fluorescence intensity (a.u.)
7,GAATAATTATCAAAGCAAAATGCCAATGAACAGCGGAGGCCGGAGTCACCTAGTGCAG,15200 fluorescence intensity (a.u.)
8,CATACCCCTTGGAATTGATCAAGACCCGATTGACTATTGACGGAGTCACCTAGTGCAG,3940 fluorescence intensity (a.u.)
9,CTAACAATGTCTTTCGTGATTAGTTTCACACTTCTCACCACGGAGTCACCTAGTGCAG,5130 fluorescence intensity (a.u.)
10,CTTAATATTTTACTCATTGATTAGCTGAAATATTTGACTACGGAGTCACCTAGTGCAG,15900 fluorescence intensity (a.u.)
11,CTTGTATGTTTGTGGATTGATATATTATATATTGATATATCGGAGTCACCTAGTGCAG,6720 fluorescence intensity (a.u.)
12,GCAAAATTTGATAATAACAAGCAGCCTTGCAAACTGCCATCGGAGTCACCTAGTGCAG,8340 fluorescence intensity (a.u.)
13,CTTAACTTTTATAATATACCATCATCGTACAGTAGACTCTCGGAGTCACCTAGTGCAG,4450 fluorescence intensity (a.u.)
14,TTGATGGATTCACCGGATTGTGCATATTTGCATCGTGGGACGGAGTCACCTAGTGCAG,5930 fluorescence intensity (a.u.)
15,AATATCTCTTGGATTGATTATCTTGAGTAAACACTGGTTTCGGAGTCACCTAGTGCAG,5420 fluorescence intensity (a.u.)
16,TTACTTGAATTAATTTAGTTCTGGGAGCCATGAGAAATGTCGGAGTCACCTAGTGCAG,3640 fluorescence intensity (a.u.)
17,TACTAATTTTATTGTTCATTTGGCATGAATTACAAGATGCCGGAGTCACCTAGTGCAG,22300 fluorescence intensity (a.u.)
18,AGCTAATCTAATAGCTAATTGATATAATAGTTGTTTACTACGGAGTCACCTAGTGCAG,34000 fluorescence intensity (a.u.)
19,CTAATTGAAATCACAAATGCTGAGTTGCTGACATGCACCACGGAGTCACCTAGTGCAG,27000 fluorescence intensity (a.u.)
20,TTCTTTAATTAAATTTAAAACAATTTGAGTTTGATCAAAGCGGAGTCACCTAGTGCAG,33500 fluorescence intensity (a.u.)
21,CGTGAAATTTTCGCAAATTTTGTCATTACGAAGACAACATCGGAGTCACCTAGTGCAG,7120 fluorescence intensity (a.u.)
